Assay results taken from article PMC4336329 (PLoS ONE, 2015).
The campaign covered roughly 310,000 compounds. About 14,000 (4.5%) showed an effect of 50% or more. The effect is printed as a negative number. This is one part of the list.
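Also: peak tail current of the secondary pulse compared with the same well before compound.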

The compounds below were run against human ether-à-go-go-related gene (hERG) potassium channel (human, UniProt Q12809) (assay: primary screen, population patch clamp on CHO cells stably expressing hERG).
Sequence of human ether-à-go-go-related gene (hERG) potassium channel (Q12809 whole entry, looked up): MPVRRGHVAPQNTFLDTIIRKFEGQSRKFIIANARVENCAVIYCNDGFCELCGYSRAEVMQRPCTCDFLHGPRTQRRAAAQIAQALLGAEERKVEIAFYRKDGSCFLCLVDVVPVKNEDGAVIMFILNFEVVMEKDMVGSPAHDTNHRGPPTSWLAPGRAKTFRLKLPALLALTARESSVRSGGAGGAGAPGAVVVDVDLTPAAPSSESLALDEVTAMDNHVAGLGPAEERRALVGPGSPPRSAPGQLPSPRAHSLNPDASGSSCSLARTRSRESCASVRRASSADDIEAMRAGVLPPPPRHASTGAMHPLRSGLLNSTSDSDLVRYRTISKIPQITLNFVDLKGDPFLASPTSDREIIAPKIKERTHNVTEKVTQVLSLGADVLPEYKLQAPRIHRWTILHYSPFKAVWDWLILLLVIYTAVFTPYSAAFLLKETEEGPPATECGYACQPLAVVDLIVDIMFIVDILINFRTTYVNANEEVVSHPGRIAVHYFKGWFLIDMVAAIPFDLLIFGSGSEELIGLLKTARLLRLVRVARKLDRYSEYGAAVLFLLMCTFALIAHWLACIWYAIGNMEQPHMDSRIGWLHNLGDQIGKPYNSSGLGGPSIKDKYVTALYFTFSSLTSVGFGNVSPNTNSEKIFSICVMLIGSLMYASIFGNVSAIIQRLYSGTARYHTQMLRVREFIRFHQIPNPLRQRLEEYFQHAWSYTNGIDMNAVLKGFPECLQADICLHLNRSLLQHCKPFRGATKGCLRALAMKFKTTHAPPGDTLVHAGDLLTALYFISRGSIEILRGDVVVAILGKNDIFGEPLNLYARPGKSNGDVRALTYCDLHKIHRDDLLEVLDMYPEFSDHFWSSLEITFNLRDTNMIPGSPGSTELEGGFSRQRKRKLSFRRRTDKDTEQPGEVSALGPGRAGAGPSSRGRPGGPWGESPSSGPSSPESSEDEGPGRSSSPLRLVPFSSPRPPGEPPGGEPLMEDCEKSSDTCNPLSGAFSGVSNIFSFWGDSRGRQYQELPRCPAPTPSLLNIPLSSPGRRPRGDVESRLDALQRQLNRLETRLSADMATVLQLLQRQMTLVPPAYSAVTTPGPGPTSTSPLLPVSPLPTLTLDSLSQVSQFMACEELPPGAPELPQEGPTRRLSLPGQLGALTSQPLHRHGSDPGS
With `O=C(NNc1cccc(Cl)n1)c1c(F)cccc1F` the “hERG current change (%, negative = inhibition) at 10uM” value was 7.93%. For `CS(=O)(=O)N(CC(=O)N1CCCCC1)Cc1ccc(Cl)cc1`, the “hERG current change (%, negative = inhibition) at 10uM” value was -2.18%. `CCn1nc(C)c(/C=C/C(=O)Nc2ccc(C)cc2C)c1C` was tested, and the “hERG current change (%, negative = inhibition) at 10uM” value was 8.36%. In the case of `CCOc1ccccc1NC(=O)NNS(=O)(=O)c1cc(OC)ccc1OC`, the “hERG current change (%, negative = inhibition) at 10uM” value is reported as 8.06%. For `COC(=O)c1cc(NC(=O)CSC2=NCCS2)cc(C(=O)OC)c1`, the “hERG current change (%, negative = inhibition) at 10uM” value was -3.86%. With `O=C(Nc1ccccc1C(=O)NCCCn1ccnc1)c1ccccc1` the “hERG current change (%, negative = inhibition) at 10uM” value was -16.5%. In the case of `C=CCO/N=C/C1=C(O)C(C(=O)OC)C(C)(C)CC1=O` (stereo not drawn), the “hERG current change (%, negative = inhibition) at 10uM” value is reported as 5.14%. With `CC(=O)c1c(C)[nH]c(C(=O)CN2C(=O)NC(C)(c3ccc4c(c3)OCCO4)C2=O)c1C` (stereo not drawn) the “hERG current change (%, negative = inhibition) at 10uM” value was 12.4%. In the case of `CCOC(=O)c1c(NC(=O)Cn2cnc([N+](=O)[O-])n2)sc2c1CCC(C)C2` (stereo not drawn), the “hERG current change (%, negative = inhibition) at 10uM” value is reported as 5.79%. In the case of `CC(=O)c1c(C)[nH]c(C(=O)/C(C#N)=C/c2cccc(C)c2)c1C`, the “hERG current change (%, negative = inhibition) at 10uM” value is reported as 19.7%. With `O=C(C1CCCN(c2ncnc3c2nc2n3CCCCC2)C1)N1CCN(c2ccc(F)cc2)CC1` (stereo not drawn) the “hERG current change (%, negative = inhibition) at 10uM” value was -66.8%. `COc1ccc(-c2nc3cc(NC(=S)NC(=O)Cc4ccccc4)ccc3o2)cc1` was tested, and the “hERG current change (%, negative = inhibition) at 10uM” value was 15.6%. In the case of `COc1cc2c(cc1OC)C(C(=O)N(C)Cc1ccccc1)C(c1cccnc1)N(C)C2=O` (stereo not drawn), the “hERG current change (%, negative = inhibition) at 10uM” value is reported as -1.27%. With `Cc1ccn2c(=O)c(NC(=O)c3cccs3)c(C)nc2c1` the “hERG current change (%, negative = inhibition) at 10uM” value was 9.36%. In the case of `COCCNC(=O)NC(=O)COC(=O)c1cc([N+](=O)[O-])ccc1Sc1nc(C)cs1`, the “hERG current change (%, negative = inhibition) at 10uM” value is reported as -6.78%. In the case of `CCOC(=O)COc1c(/C=N\O)cc(Cl)cc1OC`, the “hERG current change (%, negative = inhibition) at 10uM” value is reported as -0.325%. With `CCOC(=O)Cc1csc(NC(=S)NC(=O)c2ccc([N+](=O)[O-])cc2)n1` the “hERG current change (%, negative = inhibition) at 10uM” value was 13.8%. With `COc1ccc(/C=C2\NC(=S)N(CC3CCCO3)C2=O)c(OC)c1C` (stereo not drawn) the “hERG current change (%, negative = inhibition) at 10uM” value was -4.57%. For `Cn1c(SCC(=O)Nc2ccc(NC(=O)c3cccs3)cc2)nnc1-c1ccncc1`, the “hERG current change (%, negative = inhibition) at 10uM” value was 1.2%. For `Cc1ccc(S(=O)(=O)C2CCCCC2=O)cc1` (stereo not drawn), the “hERG current change (%, negative = inhibition) at 10uM” value was 22.1%. In the case of `Cc1ccc(NC2=C/C(=N/S(=O)(=O)c3cccs3)c3ccccc3C2=O)cc1C`, the “hERG current change (%, negative = inhibition) at 10uM” value is reported as 11.2%. `Cc1oc(-c2cccc(Cl)c2)nc1CN1CCC(C(=O)NC2CC2)CC1` was tested, and the “hERG current change (%, negative = inhibition) at 10uM” value was 16.2%. For `Cc1cccc(NC(=O)c2cc(-c3ccc(C)s3)nc3ccccc23)n1`, the “hERG current change (%, negative = inhibition) at 10uM” value was 5.03%. `O=c1c2ccccc2nc(-c2ccccc2)n1Cc1ccccc1` was tested, and the “hERG current change (%, negative = inhibition) at 10uM” value was 4.3%. In the case of `O=C(NC1CCCC1)c1n[nH]c2ccccc12`, the “hERG current change (%, negative = inhibition) at 10uM” value is reported as 20%. For `CC1Cc2ccccc2N1C(=O)CN1C(=O)C(=O)N(Cc2ccccc2)C1=O` (stereo not drawn), the “hERG current change (%, negative = inhibition) at 10uM” value was 5.26%. In the case of `COc1ccc(-c2cc(C)no2)cc1S(=O)(=O)NCCCN1CCN(c2ccccc2)CC1`, the “hERG current change (%, negative = inhibition) at 10uM” value is reported as -68%. With `CN(Cc1ccccc1)C(=O)CN1C(=O)NC(C)(c2ccc(C(C)(C)C)cc2)C1=O` (stereo not drawn) the “hERG current change (%, negative = inhibition) at 10uM” value was -16.8%. With `CC(C)Cc1nnc(NC(=O)CCNC(=O)c2ccccc2Cl)s1` the “hERG current change (%, negative = inhibition) at 10uM” value was 3.95%. For `CCN(CC)CCNC(=O)C(=O)Nc1cc2c3c(c1)CC(=O)N3CCC2`, the “hERG current change (%, negative = inhibition) at 10uM” value was 38.8%. `CCOc1cc(N2CCOCC2)c(OCC)cc1NC(=O)COc1ccccc1[N+](=O)[O-]` was tested, and the “hERG current change (%, negative = inhibition) at 10uM” value was 10.1%. In the case of `Cc1nnc(NC(=O)CN2CCN(Cc3c(Cl)cccc3Cl)CC2)s1`, the “hERG current change (%, negative = inhibition) at 10uM” value is reported as 9.97%. `Cc1ccc(NC(=O)c2cc(S(=O)(=O)Nc3ccc(C)cc3)cs2)cc1` was tested, and the “hERG current change (%, negative = inhibition) at 10uM” value was 19.3%. `COc1ccc(OC)c(NC(=O)CSc2nnc(Cc3cccn3C)n2CCc2ccccc2)c1` was tested, and the “hERG current change (%, negative = inhibition) at 10uM” value was -23.3%. With `CCOC(=O)Nc1cc(OC)c(OC)cc1Cc1nccc2cc(OC)c(OC)cc12` the “hERG current change (%, negative = inhibition) at 10uM” value was -26.3%. `Cc1ccc2nc(SCC(=O)NCc3ccc(S(N)(=O)=O)cc3)[nH]c2c1` was tested, and the “hERG current change (%, negative = inhibition) at 10uM” value was 14.2%. For `Cl.c1ccc2c(Nc3nc(N4CCOCC4)c4ccccc4n3)cccc2c1`, the “hERG current change (%, negative = inhibition) at 10uM” value was -6.79%. For `O=C(C1CCC1)N1CCN(c2ccc(C(F)(F)F)cc2[N+](=O)[O-])CC1`, the “hERG current change (%, negative = inhibition) at 10uM” value was -64%. In the case of `Cc1cc(Cl)c(OCCCN2CCCCC2)c(Br)c1.O=C(O)C(=O)O`, the “hERG current change (%, negative = inhibition) at 10uM” value is reported as -68.1%. For `Cc1ccc(C(=O)COC(=O)CCC(=O)NC2CCCCC2)cc1[N+](=O)[O-]`, the “hERG current change (%, negative = inhibition) at 10uM” value was 5.09%. For `COc1ccc(Cl)cc1NC(=S)N(CCCN1CCOCC1)Cc1cn(C)c2ccccc12`, the “hERG current change (%, negative = inhibition) at 10uM” value was -3.33%. In the case of `Cc1ccccc1NC(=O)c1ccc2c(c1)OCCO2`, the “hERG current change (%, negative = inhibition) at 10uM” value is reported as 15.2%. In the case of `FC(F)(F)c1nc(SCc2ccccc2)n[nH]1`, the “hERG current change (%, negative = inhibition) at 10uM” value is reported as 16.1%. For `Cc1onc(-c2ccccc2)c1C(=O)NNC(=S)NC(=O)c1ccc2c(c1)OCO2`, the “hERG current change (%, negative = inhibition) at 10uM” value was 17.2%. With `COCCCNC(=O)CSc1nc2ccccc2c(=O)n1CCc1ccc(S(N)(=O)=O)cc1` the “hERG current change (%, negative = inhibition) at 10uM” value was -6.07%. In the case of `Cc1ccccc1S(=O)(=O)N1[C@@H](c2cccc(Cl)c2)C(C(=O)O)=CC[C@H]1c1ccc(Cl)cc1`, the “hERG current change (%, negative = inhibition) at 10uM” value is reported as 0.857%. With `Cc1ccc(OCC(=O)NCCCNC(=O)c2cccnc2)cc1C` the “hERG current change (%, negative = inhibition) at 10uM” value was 5.12%. `CC(=O)N=C(N)Sc1nc2ccccc2[nH]1` was tested, and the “hERG current change (%, negative = inhibition) at 10uM” value was -8.83%. For `CC(=O)c1ccc(OC(=O)C2CC(=O)N(c3cccc(C)c3)C2)cc1` (stereo not drawn), the “hERG current change (%, negative = inhibition) at 10uM” value was -1.85%. In the case of `Cc1ccc(C(=O)Cn2nnc3ccccc32)cc1C`, the “hERG current change (%, negative = inhibition) at 10uM” value is reported as -1.59%. For `O=C(CSc1nc2ccccc2c(=O)[nH]1)NCc1ccc(Cl)cc1`, the “hERG current change (%, negative = inhibition) at 10uM” value was 2.39%. With `CCOc1ccc2cc(C#N)c(SCC(=O)N3CCC(C)CC3)nc2c1` the “hERG current change (%, negative = inhibition) at 10uM” value was 1.48%. In the case of `COc1ccc(CC(=O)NNC(=O)COc2ccc(C)cc2)cc1S(=O)(=O)N1CCOCC1`, the “hERG current change (%, negative = inhibition) at 10uM” value is reported as 13.5%. With `CCc1nnc(NC(=O)c2ccc3c(=O)n4c(nc3c2)CCCCC4)s1` the “hERG current change (%, negative = inhibition) at 10uM” value was -7.28%.
